{"source": "patent US5849701A", "about": "“Peptide inhibitors of fibronectin and related collagen-binding proteins” (The United States of America as represented by the …, priority 1995, dated 1998)", "key": {"fibronectin [1]": {"biological_target": "T1, fibronectin (Homo sapiens, UniProt P02751)", "T1 sequence (P02751 32-2477)": "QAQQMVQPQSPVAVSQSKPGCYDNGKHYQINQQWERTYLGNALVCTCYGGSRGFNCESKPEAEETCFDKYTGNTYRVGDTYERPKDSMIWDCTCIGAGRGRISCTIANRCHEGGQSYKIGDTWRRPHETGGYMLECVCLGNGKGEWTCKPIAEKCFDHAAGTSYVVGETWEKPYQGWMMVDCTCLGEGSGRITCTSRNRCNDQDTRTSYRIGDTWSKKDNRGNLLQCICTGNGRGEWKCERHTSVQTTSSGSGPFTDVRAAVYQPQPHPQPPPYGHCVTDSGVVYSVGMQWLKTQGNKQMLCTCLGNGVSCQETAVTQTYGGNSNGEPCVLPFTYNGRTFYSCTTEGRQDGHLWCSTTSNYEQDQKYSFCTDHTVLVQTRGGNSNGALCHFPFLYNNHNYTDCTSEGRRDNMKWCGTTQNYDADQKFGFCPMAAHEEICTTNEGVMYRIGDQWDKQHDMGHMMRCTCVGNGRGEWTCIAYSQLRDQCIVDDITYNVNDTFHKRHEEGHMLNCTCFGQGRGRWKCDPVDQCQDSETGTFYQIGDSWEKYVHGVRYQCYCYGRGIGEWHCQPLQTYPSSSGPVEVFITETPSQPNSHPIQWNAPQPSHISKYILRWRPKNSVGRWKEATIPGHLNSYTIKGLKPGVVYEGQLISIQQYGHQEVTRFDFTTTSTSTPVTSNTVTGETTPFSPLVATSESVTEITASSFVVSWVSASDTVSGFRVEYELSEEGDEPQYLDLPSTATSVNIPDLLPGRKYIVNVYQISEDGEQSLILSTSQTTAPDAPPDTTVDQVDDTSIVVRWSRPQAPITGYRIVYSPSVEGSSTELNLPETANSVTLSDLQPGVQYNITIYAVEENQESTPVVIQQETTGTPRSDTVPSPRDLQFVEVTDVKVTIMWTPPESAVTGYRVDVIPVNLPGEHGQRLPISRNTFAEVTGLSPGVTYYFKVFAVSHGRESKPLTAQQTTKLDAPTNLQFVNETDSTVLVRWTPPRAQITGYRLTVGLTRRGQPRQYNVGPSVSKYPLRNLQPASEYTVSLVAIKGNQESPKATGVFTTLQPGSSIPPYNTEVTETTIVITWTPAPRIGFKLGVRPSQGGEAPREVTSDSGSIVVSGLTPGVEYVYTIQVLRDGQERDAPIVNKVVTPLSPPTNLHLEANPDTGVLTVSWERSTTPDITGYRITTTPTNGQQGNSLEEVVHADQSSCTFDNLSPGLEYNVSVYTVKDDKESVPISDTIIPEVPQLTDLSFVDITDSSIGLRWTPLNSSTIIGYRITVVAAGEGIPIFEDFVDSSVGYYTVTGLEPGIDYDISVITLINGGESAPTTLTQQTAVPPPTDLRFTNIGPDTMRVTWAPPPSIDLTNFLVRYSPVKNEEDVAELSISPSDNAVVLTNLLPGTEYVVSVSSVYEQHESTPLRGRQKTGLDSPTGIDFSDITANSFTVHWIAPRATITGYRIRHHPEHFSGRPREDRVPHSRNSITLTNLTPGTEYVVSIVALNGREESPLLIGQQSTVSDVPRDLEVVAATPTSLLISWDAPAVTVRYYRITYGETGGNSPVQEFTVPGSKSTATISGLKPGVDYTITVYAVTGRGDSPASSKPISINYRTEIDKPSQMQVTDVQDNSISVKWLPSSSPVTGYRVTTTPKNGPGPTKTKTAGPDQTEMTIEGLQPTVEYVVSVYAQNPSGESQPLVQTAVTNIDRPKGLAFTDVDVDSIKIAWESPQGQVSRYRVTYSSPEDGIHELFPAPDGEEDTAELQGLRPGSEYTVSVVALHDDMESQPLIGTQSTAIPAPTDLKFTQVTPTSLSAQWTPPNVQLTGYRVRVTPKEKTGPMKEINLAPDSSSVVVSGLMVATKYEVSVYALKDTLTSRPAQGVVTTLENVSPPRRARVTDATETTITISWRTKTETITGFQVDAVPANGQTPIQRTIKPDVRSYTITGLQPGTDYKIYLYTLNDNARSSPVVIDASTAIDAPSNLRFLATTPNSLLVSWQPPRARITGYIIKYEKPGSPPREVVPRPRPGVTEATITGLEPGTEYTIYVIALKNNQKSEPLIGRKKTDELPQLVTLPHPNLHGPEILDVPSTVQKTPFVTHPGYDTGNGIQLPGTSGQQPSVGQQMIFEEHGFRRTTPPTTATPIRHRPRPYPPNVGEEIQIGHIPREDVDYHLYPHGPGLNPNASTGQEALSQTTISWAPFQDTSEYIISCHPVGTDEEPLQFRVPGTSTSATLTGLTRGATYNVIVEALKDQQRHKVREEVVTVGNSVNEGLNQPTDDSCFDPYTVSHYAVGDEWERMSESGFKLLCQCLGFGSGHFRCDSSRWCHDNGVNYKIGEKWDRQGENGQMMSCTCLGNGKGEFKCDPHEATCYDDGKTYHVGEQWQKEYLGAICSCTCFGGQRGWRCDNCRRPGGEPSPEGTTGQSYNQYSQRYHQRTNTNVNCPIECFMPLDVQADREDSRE", "assay": "Direct binding of 125I-fibronectin to immobilized peptides", "conditions": "for FN Binding: fibronectin binding to immobilized peptides, saturating peptide conditions; for binding of fibronectin to peptide (in words): immobilized peptide, 125I-fibronectin", "experimental": "Fibronectin was isolated from platelet-depleted plasma as described (Ariyama, et al. 1985, J. Biol. Chem. 260:4492-4500) and iodinated using Iodogen (Pierce Chemical Co., Rockford, Ill.) as described (Roberts, et al. 1987, J. Cell. Biol. 104:131-139).\nDirect binding of the fibronectin to immobilized peptides was carried out by first absorbing the peptides on polyvinyl chloride microtiter wells for 3 hours at 25° C. at the indicated concentrations. Unbound peptides were removed by washing and wells were incubated for 30 minutes in tris-BSA (50 mM tris-HCl, pH7-8, 110 mm NaCl, 1% BSA) (Sigma fatty acid and globulin-free, 0.1% NaN3). The wells were washed and incubated with […] of 0.5 μg/ml ^125 I-fibronectin for 2 hours at 25° C. The wells were washed five times with Dulbecco's phosphate buffered saline and cut from the plate and bound radioactivity was counted.\nThe peptides listed in Table 1 were synthesized as described above and absorbed to microtiter wells. […] This peptide sequence is located in the second type I repeat of the human-ThbsI gene."}, "[2]": {"tested_on": "MDA 435s breast carcinoma cells", "assay": "Fibronectin-mediated adhesion of MDA 435s breast carcinoma cells to gelatin", "type": "cell-based, human", "conditions": "MDA 435s cells; 1 μg/ml fibronectin; 2, 20 or 200 μg peptide"}, "[3]": {"tested_on": "human melanoma cell line A2058", "assay": "Fibronectin-mediated adhesion of A2058 melanoma cells to gelatin", "type": "cell-based", "conditions": "1 μg/ml fibronectin, 2, 20 or 200 μg peptide"}, "[4]": {"tested_on": "breast carcinoma cells (cell line MDA 435s)", "assay": "Fibronectin-mediated adhesion of breast carcinoma cells to native type I collagen", "type": "cell-based, human", "conditions": "MDA 435s cells"}, "fibronectin [5]": {"biological_target": "T1, fibronectin", "assay": "Inhibition of fibronectin binding to immobilized native type I collagen", "experimental": "(§1) Wells of a microtiter plate were incubated for 3 hours at 25° C. with […] gelatin in Dulbecco's PBS. The wells were emptied and incubated with Dulbecco's PBS containing 1% BSA for 30 minutes. The wells were emptied and incubated with 0.5 μg/ml ^125 I-fibronectin in the presence of peptide GlyGlyTrpSerHisTrp (SEQ ID NO: 1) (.circle-solid.); GlyGlyTrpSerLysTrp (SEQ ID NO: 9) (.tangle-solidup.); GlyGlyTyrSerHisTrp (SEQ ID NO: 10) (.box-solid.); or GlyGlyTrpSerHisTyr (SEQ ID NO: 11) (.tangle-soliddn.) for 2 hours at 25° C. The wells were washed 4 times with PBS, cut from the plate and the bound radioactivity was counted.\nA ligand binding assay as described in Example 5 was performed except that microtiter plates were coated with immobilized native type I collagen in place of gelatin."}, "MDA 435s cells": {"tested_on": "MDA 435s cells", "assay": "Direct adhesion of MDA 435s cells to immobilized fibronectin", "type": "cell-based, human"}, "fibronectin [6]": {"biological_target": "T1, fibronectin", "assay": "Inhibition of 125I-fibronectin binding to gelatin", "conditions": "0.5 μg/ml 125I-fibronectin, 2 hours at 25° C.", "experimental": "as §1"}, "A2058 cells": {"tested_on": "A2058 cells", "assay": "Direct adhesion of A2058 cells to immobilized fibronectin", "type": "cell-based, human"}, "[7]": {"tested_on": "breast carcinoma cells (cell line MDA 435s)", "assay": "Direct binding of cells to type 1 collagen", "type": "cell-based, human", "conditions": "MDA 435s cells"}, "gelatinase": {"tested_on": "gelatinase", "assay": "Degradation of 125I-gelatin by gelatinase activity in conditioned medium", "type": "biochemical", "conditions": "conditioned medium from bovine corneal endothelial cells, activated with p-hydroxymercuribenzoate"}, "cells": {"tested_on": "cells", "assay": "Fibronectin-mediated cell adhesion to a gelatin matrix (cell line not stated)", "type": "cell-based"}}, "note": "“Also recorded” adds a separate entry of the source. Part of at least one peptide drawing is inferred or uncertain, most often the ends. Where no end group is shown, it is not given here.", "data": [{"compound": "SHWSPWSS [Peptide 239, SHWSPWSS]", "values": [{"measurement": "FN Binding", "setting": "fibronectin [1]", "result": "+ (binding of 1 to 5%)"}]}, {"compound": "GGWSHWSP [Peptide 264, GGWSHWSP]", "values": [{"measurement": "FN Binding", "setting": "fibronectin [1]", "result": "+ (binding of 1 to 5%)"}]}, {"compound": "GGWSKW [GlyGlyTrpSerLysTrp]", "values": [{"measurement": "inhibition of fibronectin-stimulated adhesion to gelatin", "setting": "[2]", "result": "inactive"}, {"measurement": "inhibition of fibronectin-stimulated adhesion to gelatin", "setting": "[3]", "result": "inactive"}, {"measurement": "inhibition of fibronectin-mediated adhesion to native type 1 collagen", "setting": "[4]", "result": "but not"}]}, {"compound": "GGWAHW [GlyGlyTrpAlaHisTrp]", "values": [{"measurement": "inhibition of fibronectin binding to type I collagen (in words)", "setting": "fibronectin [5]", "result": "weak inhibitor"}]}, {"compound": "GGWSHASPWSS [Peptide 259, GGWSHASPWSS]", "values": [{"measurement": "binding of fibronectin to peptide (in words)", "setting": "fibronectin [1]", "result": "fails to bind"}]}, {"compound": "WSHWSP [Peptide 292, WSHWSP]", "values": [{"measurement": "inhibition of fibronectin-stimulated adhesion to gelatin", "setting": "[2]", "result": "inactive"}, {"measurement": "inhibition of fibronectin-stimulated adhesion to gelatin", "setting": "[3]", "result": "inactive"}, {"measurement": "inhibition of fibronectin-mediated adhesion to native type 1 collagen", "setting": "[4]", "result": "but not"}, {"measurement": "FN Binding", "setting": "fibronectin [1]", "result": "+ (binding of 1 to 5%)"}]}, {"compound": "N=C(N)NCCC[C@H](NC(=O)CN)C(=O)NCC(=O)N[C@@H](CC(=O)O)C(=O)N[C@@H](CO)C(=O)O", "note": "[GlyArgGlyAspSer, reference compound]", "values": [{"measurement": "inhibition of fibronectin-mediated adhesion to native type 1 collagen", "setting": "[4]", "result": "inhibited"}, {"measurement": "inhibition of direct adhesion to immobilized fibronectin", "setting": "MDA 435s cells", "result": "inhibited"}]}, {"compound": "GGWSHW [Peptide 300, GGWSHW]", "values": [{"measurement": "inhibition of fibronectin binding to gelatin (in words)", "setting": "fibronectin [6]", "result": "inhibition"}, {"measurement": "inhibition of direct adhesion to immobilized fibronectin", "setting": "A2058 cells", "result": "not inhibited"}, {"measurement": "inhibition of fibronectin-stimulated adhesion to gelatin", "setting": "[2]", "result": "inhibited in a dose-dependent manner"}, {"measurement": "inhibition of fibronectin-stimulated adhesion to gelatin", "setting": "[3]", "result": "inhibited in a dose-dependent manner"}, {"measurement": "inhibition of fibronectin-mediated adhesion to native type 1 collagen", "setting": "[4]", "result": "inhibited"}, {"measurement": "FN Binding", "setting": "fibronectin [1]", "result": "+++ (more than 50% binding to fibronectin)"}, {"measurement": "binding of fibronectin to peptide (in words)", "setting": "fibronectin [1]; listed as GlyGlyTrpSerHisTpr", "result": "binds fibronectin better than larger peptides containing the same sequence or intact thrombospondin"}, {"measurement": "inhibition of direct adhesion to immobilized fibronectin", "setting": "MDA 435s cells", "result": "not inhibited"}, {"measurement": "inhibition of direct binding of cells to type 1 collagen", "setting": "[7]", "result": "does not inhibit"}, {"measurement": "inhibition of gelatinase", "setting": "gelatinase", "result": "inhibition"}]}, {"compound": "KRFKQDGGWSHWSPWSS [Peptide 246, KRFKQDGGWSHWSPWSS]", "values": [{"measurement": "inhibition of fibronectin-mediated cell adhesion to a gelatin matrix", "setting": "cells", "result": "potent inhibitor"}, {"measurement": "inhibition of fibronectin binding to gelatin (in words)", "setting": "fibronectin [6]", "result": "potent inhibitor"}, {"measurement": "FN Binding", "setting": "fibronectin [1]", "result": "++ (from more than 5 to 50% binding)"}, {"measurement": "binding of fibronectin to peptide (in words)", "setting": "fibronectin [1]", "result": "bound labelled fibronectin; also recorded: strong affinity"}]}, {"compound": "KRFKQDGGWSHWSP [Peptide 263, KRFKQDGGWSHWSP]", "values": [{"measurement": "FN Binding", "setting": "fibronectin [1]", "result": "++ (from more than 5 to 50% binding)"}]}, {"compound": "WSHWS [Peptide 285, WSHWS]", "values": [{"measurement": "FN Binding", "setting": "fibronectin [1]", "result": "+ (binding of 1 to 5%)"}]}, {"compound": "GGWSHWSPWSS [Peptide 256, GGWSHWSPWSS]", "values": [{"measurement": "FN Binding", "setting": "fibronectin [1]", "result": "++ (from more than 5 to 50% binding)"}, {"measurement": "binding of fibronectin to peptide (in words)", "setting": "fibronectin [1]", "result": "binds fibronectin"}]}]}
